Measured values as given in the supplement of paper PMC3334620.
The full ranking holds about 33,000 sequences; the median of “E-score (-0.5 to 0.5)” is about -0.043, and the highest 2% start at about 0.37. This is one part of the list.

These sequences were tested against T1, Upc2 (UniProt Q12151) (assay: PBM E-score (8-mer binding enrichment) (E-score (-0.5 to 0.5)); higher = stronger / more preferred TF binding; most listed sequences are background and not binding sites). Conditions: protein concentration: 200 nM; construct: GST-full length.
T1 sequence: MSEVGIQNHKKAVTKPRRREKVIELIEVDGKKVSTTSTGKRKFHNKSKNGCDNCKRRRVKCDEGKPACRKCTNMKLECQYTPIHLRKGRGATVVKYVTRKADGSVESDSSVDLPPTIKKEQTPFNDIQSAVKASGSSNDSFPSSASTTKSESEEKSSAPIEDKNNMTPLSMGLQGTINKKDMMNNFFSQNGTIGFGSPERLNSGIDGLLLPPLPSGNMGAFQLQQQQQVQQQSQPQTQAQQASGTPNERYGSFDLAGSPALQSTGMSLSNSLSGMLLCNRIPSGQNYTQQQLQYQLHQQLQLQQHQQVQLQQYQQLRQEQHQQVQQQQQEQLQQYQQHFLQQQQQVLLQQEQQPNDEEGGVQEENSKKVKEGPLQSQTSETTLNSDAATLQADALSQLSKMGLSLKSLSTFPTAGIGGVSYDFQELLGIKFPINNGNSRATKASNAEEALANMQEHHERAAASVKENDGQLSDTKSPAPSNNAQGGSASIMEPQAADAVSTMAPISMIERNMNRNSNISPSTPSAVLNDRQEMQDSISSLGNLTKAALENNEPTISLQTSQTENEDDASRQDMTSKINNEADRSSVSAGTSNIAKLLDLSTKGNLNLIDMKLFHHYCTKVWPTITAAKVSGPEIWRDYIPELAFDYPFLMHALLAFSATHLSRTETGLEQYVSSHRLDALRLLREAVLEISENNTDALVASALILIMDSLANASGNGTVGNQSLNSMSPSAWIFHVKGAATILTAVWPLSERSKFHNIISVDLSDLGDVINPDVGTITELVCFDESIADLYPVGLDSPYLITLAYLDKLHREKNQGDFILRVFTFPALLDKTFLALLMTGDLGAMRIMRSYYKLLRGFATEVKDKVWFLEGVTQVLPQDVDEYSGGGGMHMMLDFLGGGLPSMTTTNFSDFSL
Method: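 Universal 'all 10-mer' protein binding microarrays (Agilent AMADID 015681) probed with GST-tagged S. cerevisiae TFs (full-length or DBD) made by in vitro transcription/translation (PURExpress), about 100-200 nM. Bound TF was detected with fluorescent anti-GST. Each ungapped 8-mer (which stands for itself and its reverse complement) is scored by the PBM enrichment score (E-score), a modified Wilcoxon-Mann-Whitney statistic from -0.5 to +0.5, computed with the Universal PBM Analysis Suite. Scale: above 0.35 generally sequence-specific binding.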

Sequence	PBM E-score
ATACTCTC	0.0884
CACGGGAA	-0.159
GAGAACCA	-0.0565
ACAGCCAC	-0.272
CACCCTGG	-0.21
CCTCATGC	-0.315
AGGGCACT	-0.15
ATCTCTTG	-0.3
CTCCCATA	-0.167
GCTACGCC	-0.18
GAGGGAAA	-0.13
ATTGCAGA	-0.073
CCGTAACC	0.194
AGAGGAGC	-0.0687
AACAGTTA	-0.135
CCGCGAAC	0.0928
ACGCGCCG	0.159
AATCCATG	-0.252
AAATTCAT	-0.122
ATCGTCCG	-0.101
ACTTCATG	-0.14
CACCCGTA	0.254
ACCCCTAC	-0.221
AATAGGTG	-0.0824
CTTGGACA	-0.134

Sequence	PBM E-score
AGCCCTAT	-0.174
CTTACACC	0.0562
AAAAACAT	0.0671
GACCAAAC	0.0844
TAGTCCGA	0.0309
GCTCAGCA	0.0843
AAGTATTA	-0.141
ACACCCGC	-0.113
CCTGAGGA	-0.0922
CAAGTGGA	-0.308
AAACTTTA	-0.0184
AGCCGGAT	-0.119
AATCTGGT	-0.093
CACAACAA	0.0905
CGTACTAC	0.327
GAAACTTA	0.0588
CGTAGAAA	0.282
AGTTTTTA	0.192
AGGAAGCA	-0.101
AGATTCAT	-0.263
CAGTCGCC	-0.196
TGAACCCA	-0.0696
GCTTCGAC	-0.201
ACGTAGGG	-0.147
ATAGGCTG	-0.0822

Sequence	PBM E-score
AGTCAGGG	-0.253
AGCCTTGC	-0.0435
ACTATGTC	-0.106
CCAAATGG	-0.176
CGGTTCGC	0.0718
AAGGCGTA	0.097
CGAGCAGC	0.0843
GAGGATCA	-0.228
GTGGTTGA	-0.0855
AGATGGAA	-0.117
AATTTAGT	0.00405
TGCGGCCA	-0.216
GCCCCTTA	0.0748
GCCCTAAA	-0.0187
ACTCTTCG	0.178
ACCAAACG	0.4
ACTCCAGT	-0.0814
GAGTTTAC	0.121
CTACTGTC	-0.148
ACTAACAT	0.0896
AGTACGAG	0.428
AACGGCGT	0.283
CGACTTAG	0.213
GCTAACTA	0.0445
GAGTTCGA	0.0819

Sequence	PBM E-score
AATCGGGG	-0.249
AATATAGC	-0.108
AGAAGAAA	0.0534
GCTAGCAA	-0.184
CGCGGGGC	-0.036
CAGCCGCC	-0.17
ACTAGAGC	-0.0879
ACATAGGA	-0.115
GCTCTCGA	-0.208
GAGGTCCC	-0.202
AATTATCG	0.17
TGCGCACA	0.0459
TACTAGTA	0.0872
ATATTACC	-0.138
ATATCGAC	0.0601
CGTATTCA	0.313
CGATTACG	0.259
ATACCAGC	-0.184
AGGTTGAT	-0.157
ATTTGAAG	-0.0186
GACCTACC	-0.0781
CCGACTCA	-0.101
CAAGAGTA	-0.0891
GAGACCAC	-0.198
CGATCGGA	0.0957

Sequence	PBM E-score
AGTTTGTA	-0.0335
AATCGAAA	-0.00364
GCAACGAC	0.326
CTCATGTA	0.0445
AAAGCGGG	-0.135
CGCGACTC	-0.00274
TATAGAGA	0.0987
CGTGACAC	-0.0354
AGCAGATG	-0.221
CCATTTCA	-0.241
CCGGGTAC	0.262
CTCACCCA	-0.234
ATTAGACC	-0.152
CCGCAAAA	0.0377
CAACGACC	0.221
GTGGGAAA	-0.00915
AGGACCCC	-0.219
CGGGCCCA	-0.191
CCGATTCA	-0.172
ACAACTTC	0.00079
CGGCCTCA	0.0532
GAATTAGA	-0.0305
ACACTTTG	-0.0624
GCTGCAAA	0.00241
TTATGAAA	0.0712

Sequence	PBM E-score
AGCTCGTC	0.103
GACTATCC	-0.158
ATTAGTAG	-0.141
GCCACGGA	-0.271
AACAACTT	-0.016
CTCCCATC	-0.189
CAGAGACA	-0.356
ACACCTCT	-0.0564
AGCCTAGC	-0.103
AACCCTCT	-0.202
AGACCCGA	0.114
CCGCGTCA	-0.148
AATCGAAG	0.159
CAATCCTG	-0.13
CACTCCGG	-0.0799
ATGGCTGA	-0.139
CGCCGGAC	-0.2
CCGATGCC	-0.0622
ATTTGCGG	0.0282
TAGCGAGA	0.215
AACCCGAA	0.204
TGCTACCA	-0.19
CTACACTC	-0.0739
ACCTCTTG	-0.221
TAGCACGA	0.0364

Sequence	PBM E-score
GATCTGTA	-0.0783
GTATCTGA	0.134
AGGTCATG	-0.0294
CCGTGACA	-0.256
AGGCTTTG	-0.17
CGGGTGGC	0.0279
CTCCCGGC	-0.258
AAACGTCT	0.216
CGTTGTCA	-0.00138
AAGTGGAT	-0.121
AGGTCAGA	-0.199
ATGCTCGG	0.0505
TTAGTCAA	-0.0747
GACTGGGC	-0.172
GAATACTC	-0.0364
ACGTGGGG	-0.115
ATACGAGA	0.482
CGATCTGC	0.0241
GCGAGGTA	0.244
GTCGATGA	-0.0939
CCGAGGCC	0.102
CAACTGTC	-0.249
